# The list shows a part of the results.
# Legend:
# Test in all cases: glycan array binding signal (z-score within array); higher = stronger binding
# Conditions in all cases: glycan notation: IUPAC condensed, linker removed
# [1] = biological target: Gal(b1-4)GlcNAc(b1-3)Gal(b1-4)GlcNAc(b1-3)[Gal(b1-4)GlcNAc(b1-3)Gal(b1-4)GlcNAc(b1-6)]GalNAc
# Procedure, shortened: (§1)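 Negative Z-scores can be read as non-binding. The Z-score is calculated within each array and then averaged across arrays of one protein sequence at different concentrations or buffers and across linkers. Arrays, 3228 in all, were curated from the Consortium for Functional Glycomics database and kept only where the protein sequence was available.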
# [2] = biological target: Gal(b1-4)GlcNAc(b1-3)Gal(b1-4)GlcNAc(b1-6)[Gal(b1-3)]GalNAc
# Procedure, shortened: as §1
# [3] = biological target: Gal(b1-4)GlcNAc(b1-3)Gal(b1-4)[Fuc(a1-3)]GlcNAc(b1-3)Gal(b1-4)[Fuc(a1-3)]GlcNAc
# Procedure, shortened: as §1
# [4] = biological target: Gal(b1-4)GlcNAc(b1-3)GalNAc
# Procedure, shortened: as §1
# [5] = biological target: Gal(b1-4)GlcNAc(b1-3)[Fuc(a1-3)GlcNAc(b1-6)]Gal(b1-4)Glc
# Procedure, shortened: as §1
# [6] = biological target: Gal(b1-4)GlcNAc(b1-3)[Gal(b1-4)GlcNAc(b1-6)]Gal(b1-4)GlcNAc
# Procedure, shortened: as §1
# [7] = biological target: Gal(b1-4)GlcNAc(b1-3)[GlcNAc(b1-6)]Gal(b1-4)GlcNAc
# Procedure, shortened: as §1
# [8] = biological target: Gal(b1-4)GlcNAc(b1-6)Gal(b1-4)GlcNAc
# Procedure, shortened: as §1
# [9] = biological target: Gal(b1-4)GlcNAc(b1-6)GalNAc
# Procedure, shortened: as §1
# [10] = biological target: Gal(b1-4)GlcNAc(b1-6)[Gal(b1-3)]GalNAc
# Procedure, shortened: as §1
# [11] = biological target: Gal(b1-4)GlcNAc(b1-6)[Gal(b1-4)GlcNAc(b1-3)]GalNAc
# Procedure, shortened: as §1
# Gal(b1-4)GlcNAc6P = biological target: Gal(b1-4)GlcNAc6P
# Procedure, shortened: as §1
# Gal(b1-6)Gal = biological target: Gal(b1-6)Gal
# Procedure, shortened: as §1
# Gal3S(b1-3)GalNAc = biological target: Gal3S(b1-3)GalNAc
# Procedure, shortened: as §1
# Gal3S(b1-3)GlcNAc = biological target: Gal3S(b1-3)GlcNAc
# Procedure, shortened: as §1
# [12] = biological target: Gal3S(b1-3)[Fuc(a1-4)]GlcNAc
# Procedure, shortened: as §1
# Gal3S(b1-4)Glc = biological target: Gal3S(b1-4)Glc
# Procedure, shortened: as §1
# Gal3S(b1-4)Glc6S = biological target: Gal3S(b1-4)Glc6S
# Procedure, shortened: as §1
# Gal3S(b1-4)GlcNAc = biological target: Gal3S(b1-4)GlcNAc
# Procedure, shortened: as §1
# [13] = biological target: Gal3S(b1-4)[Fuc(a1-3)]Glc6S
# Procedure, shortened: as §1
# [14] = biological target: Gal3S(b1-4)[Fuc(a1-3)]GlcNAc
# Procedure, shortened: as §1
# [15] = biological target: Gal3S(b1-4)[Fuc(a1-3)]GlcNAc6S
# Procedure, shortened: as §1
# Gal3S4S(b1-4)GlcNAc = biological target: Gal3S4S(b1-4)GlcNAc
# Procedure, shortened: as §1
# Gal3S6S(b1-4)GlcNAc = biological target: Gal3S6S(b1-4)GlcNAc
# Procedure, shortened: as §1
# Gal3S6S(b1-4)GlcNAc6S = biological target: Gal3S6S(b1-4)GlcNAc6S
# Procedure, shortened: as §1
# Gal4S(b1-4)GlcNAc = biological target: Gal4S(b1-4)GlcNAc
# Procedure, shortened: as §1
# Gal4S6S(b1-4)GlcNAc = biological target: Gal4S6S(b1-4)GlcNAc
# Procedure, shortened: as §1
# Gal6P(b1-4)GlcNAc = biological target: Gal6P(b1-4)GlcNAc
# Procedure, shortened: as §1
# Gal6S(b1-3)GlcNAc = biological target: Gal6S(b1-3)GlcNAc
# Procedure, shortened: as §1
# Gal6S(b1-3)GlcNAc6S = biological target: Gal6S(b1-3)GlcNAc6S
# Procedure, shortened: as §1
# Gal6S(b1-4)Glc = biological target: Gal6S(b1-4)Glc
# Procedure, shortened: as §1
# Gal6S(b1-4)Glc6S = biological target: Gal6S(b1-4)Glc6S
# Procedure, shortened: as §1
# Gal6S(b1-4)GlcNAc = biological target: Gal6S(b1-4)GlcNAc
# Procedure, shortened: as §1
# Gal6S(b1-4)GlcNAc6S = biological target: Gal6S(b1-4)GlcNAc6S
# Procedure, shortened: as §1
# GalNAc(a1-3)Gal = biological target: GalNAc(a1-3)Gal
# Procedure, shortened: as §1
# GalNAc(a1-3)GalNAc = biological target: GalNAc(a1-3)GalNAc
# Procedure, shortened: as §1
# [16] = biological target: GalNAc(a1-3)GalNAc(b1-3)Gal(a1-4)Gal(b1-4)Glc
# Procedure, shortened: as §1
# [17] = biological target: GalNAc(a1-3)GalNAc(b1-3)Gal(a1-4)Gal(b1-4)GlcNAc
# Procedure, shortened: as §1
# GalNAc(b1-3)Gal = biological target: GalNAc(b1-3)Gal
# Procedure, shortened: as §1
# [18] = biological target: GalNAc(b1-3)Gal(a1-4)Gal(b1-4)GlcNAc
# Procedure, shortened: as §1
# [19] = biological target: GalNAc(b1-3)Gal(a1-4)Gal(b1-4)GlcNAc(b1-3)Gal(b1-4)Glc
# Procedure, shortened: as §1
# [20] = biological target: GalNAc(b1-3)Gal(a1-6)Gal(b1-4)Glc
# Procedure, shortened: as §1
# GalNAc(b1-3)GalNAc = biological target: GalNAc(b1-3)GalNAc
# Procedure, shortened: as §1
# GalNAc(b1-3)GlcNAc = biological target: GalNAc(b1-3)GlcNAc
# Procedure, shortened: as §1
# GalNAc(b1-4)Gal(b1-4)Glc = biological target: GalNAc(b1-4)Gal(b1-4)Glc
# Procedure, shortened: as §1
binder,measurement,setting,value
CTAEGIKKFEGDGYELFKDNFPAGEKFDNDDTNDQFYTVIF [MUB40 (Lactobacillus reuteri)],glycan array binding signal (z-score),[1],-0.093
same,glycan array binding signal (z-score),[2],0.409
same,glycan array binding signal (z-score),[3],0.393
same,glycan array binding signal (z-score),[4],0.403
same,glycan array binding signal (z-score),[5],0.53
same,glycan array binding signal (z-score),[6],0.195
same,glycan array binding signal (z-score),[7],-0.22
same,glycan array binding signal (z-score),[8],-0.361
same,glycan array binding signal (z-score),[9],-0.132
same,glycan array binding signal (z-score),[10],-0.22
same,glycan array binding signal (z-score),[11],-0.321
same,glycan array binding signal (z-score),Gal(b1-4)GlcNAc6P,-0.366
same,glycan array binding signal (z-score),Gal(b1-6)Gal,-0.492
same,glycan array binding signal (z-score),Gal3S(b1-3)GalNAc,-0.494
same,glycan array binding signal (z-score),Gal3S(b1-3)GlcNAc,0.172
same,glycan array binding signal (z-score),[12],0.295
same,glycan array binding signal (z-score),Gal3S(b1-4)Glc,-0.165
same,glycan array binding signal (z-score),Gal3S(b1-4)Glc6S,-0.109
same,glycan array binding signal (z-score),Gal3S(b1-4)GlcNAc,-0.289
same,glycan array binding signal (z-score),[13],0.497
same,glycan array binding signal (z-score),[14],-0.237
same,glycan array binding signal (z-score),[15],0.559
same,glycan array binding signal (z-score),Gal3S4S(b1-4)GlcNAc,1.21
same,glycan array binding signal (z-score),Gal3S6S(b1-4)GlcNAc,1.73
same,glycan array binding signal (z-score),Gal3S6S(b1-4)GlcNAc6S,-0.232
same,glycan array binding signal (z-score),Gal4S(b1-4)GlcNAc,-0.333
same,glycan array binding signal (z-score),Gal4S6S(b1-4)GlcNAc,1.07
same,glycan array binding signal (z-score),Gal6P(b1-4)GlcNAc,0.149
same,glycan array binding signal (z-score),Gal6S(b1-3)GlcNAc,-0.392
same,glycan array binding signal (z-score),Gal6S(b1-3)GlcNAc6S,0.023
same,glycan array binding signal (z-score),Gal6S(b1-4)Glc,2
same,glycan array binding signal (z-score),Gal6S(b1-4)Glc6S,-0.817
same,glycan array binding signal (z-score),Gal6S(b1-4)GlcNAc,-0.617
same,glycan array binding signal (z-score),Gal6S(b1-4)GlcNAc6S,-0.04
same,glycan array binding signal (z-score),GalNAc(a1-3)Gal,-0.411
same,glycan array binding signal (z-score),GalNAc(a1-3)GalNAc,-0.598
same,glycan array binding signal (z-score),[16],-0.35
same,glycan array binding signal (z-score),[17],-0.31
same,glycan array binding signal (z-score),GalNAc(b1-3)Gal,-0.431
same,glycan array binding signal (z-score),[18],-0.189
same,glycan array binding signal (z-score),[19],-0.426
same,glycan array binding signal (z-score),[20],0.235
same,glycan array binding signal (z-score),GalNAc(b1-3)GalNAc,-0.452
same,glycan array binding signal (z-score),GalNAc(b1-3)GlcNAc,-0.031
same,glycan array binding signal (z-score),GalNAc(b1-4)Gal(b1-4)Glc,-0.468
